Measurements as given in PubChem BioAssay AID1159614 (National Center for Advancing Translational Sciences (NCATS), 2016).
The whole screen tested about 45,000 compounds, of which about 65 (0.1%) were called active. Calls come from the whole dose curve; as a rule, active = well fitted activation curve with a large enough effect; inconclusive = small, poorly fitted or top-dose-only effect; inactive = no such curve, though single readings can be large or run the other way. This is one part of the list.

molecular target: Galactocerebrosidase (Homo sapiens) (UniProt P54803); assay: A Novel Cell-Based Assay to Identify Small Molecules for B -Galactocerebrosidase; conditions: 145M-Twi-hGALC-G270D cells, HMU-beta-Gal fluorescence, 48 h; series mostly up to 57.5 µM; activation: at the top concentration; note: nearly all actives have a fitted effect of over 65% in size; for activation: 0% is about no effect
How it was run: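 qHTS, 1536-well; 145M-Twi-hGALC-G270D cells (WT line also made) in DMEM/F12 + 10% FBS; compound incubation on live cells; HMU-β-gal 0.1 mM final, pH 5.2, NaTC; carbonate stop; fluorescence increase = enhanced residual activity.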
Potency is the fitted concentration of half-maximal effect.

Sequence of UniProt P54803 (P54803 whole entry, looked up): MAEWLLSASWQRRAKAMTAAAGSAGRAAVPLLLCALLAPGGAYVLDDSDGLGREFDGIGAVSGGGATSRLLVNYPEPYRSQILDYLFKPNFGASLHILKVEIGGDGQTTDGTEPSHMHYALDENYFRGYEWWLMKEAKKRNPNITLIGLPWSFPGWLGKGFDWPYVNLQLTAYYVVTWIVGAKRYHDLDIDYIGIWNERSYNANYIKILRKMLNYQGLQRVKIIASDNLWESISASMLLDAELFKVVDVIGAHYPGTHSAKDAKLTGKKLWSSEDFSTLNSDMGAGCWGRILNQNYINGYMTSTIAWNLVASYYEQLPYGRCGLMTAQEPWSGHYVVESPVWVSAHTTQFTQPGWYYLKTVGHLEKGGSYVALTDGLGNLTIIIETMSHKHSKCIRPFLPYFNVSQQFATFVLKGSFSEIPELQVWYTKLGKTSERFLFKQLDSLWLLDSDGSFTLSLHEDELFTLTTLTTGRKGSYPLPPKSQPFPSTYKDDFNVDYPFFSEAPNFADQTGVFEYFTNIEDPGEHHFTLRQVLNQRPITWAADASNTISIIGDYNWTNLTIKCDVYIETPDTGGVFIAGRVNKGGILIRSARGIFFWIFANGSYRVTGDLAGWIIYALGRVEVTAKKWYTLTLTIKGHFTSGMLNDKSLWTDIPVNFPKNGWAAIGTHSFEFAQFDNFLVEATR

Row | SMILES | activation | Potency
1 | COc1ccc(C(CNC(=O)COc2cc(C)cc(C)c2)N2CCCCC2)cc1 (stereo unspecified) | inactive: -6.87% | –
2 | Cc1ccc2c(CC(=O)Nc3c(C(=O)c4ccc(F)cc4)oc4ccccc34)coc2c1 | inactive: -14.3% | –
3 | CCN(c1ccccc1)S(=O)(=O)c1ccc(NC(=O)c2cc(=O)c3ccc(C)c(C)c3o2)cc1 | inactive: -15.4% | –
4 | COc1ccc(CCNC(=O)CS(=O)Cc2nc(-c3ccc(C)cc3)oc2C)cc1OC (stereo unspecified) | inactive: -20.8% | –
5 | O=C(CCSCc1ccc(Cl)cc1)N1CCN(c2ccccc2F)CC1 | inactive: -8.65% | –
6 | CC(NC(=O)C1CCN(C(=O)N2CCOc3ccc(Cl)cc32)CC1)c1ccccc1 (stereo unspecified) | inactive: -6.27% | –
7 | CCC(=O)OCc1cnc(C)c2oc(=O)c(C(=O)Nc3ccc(CC)cc3)cc12 | inactive: -10.5% | –
8 | Cn1cc(C(=O)[C@@H]2CCc3nc[nH]c3C2)c2ccccc21 | inactive: -22.1% | –
9 | COc1ccc(N2CCN(C(=O)c3nn(C)c4c3CS(=O)(=O)c3ccccc3-4)CC2)cc1 | inactive: -7.75% | –
10 | COc1ccc(-c2nc3c(c(SCc4cc(C)ccc4C)n2)Cc2c(CO)cnc(C)c2O3)cc1 | inactive: -10.8% | –
11 | CCOc1ccc2oc(=O)cc(CN3CCN(C(=O)c4cccc(F)c4)CC3)c2c1 | inactive: -7.22% | –
12 | Cc1cccc(C(=O)O)c1O | inactive: -9.08% | –
13 | CCCN(CCC)CCNC(=O)Cn1ncc2c([nH]c3ccc(C)cc32)c1=O | inactive: -8.42% | –
14 | COc1ccccc1Nc1nn2c(=O)c3ccc(C(=O)Nc4ccc(F)cc4)cc3nc2s1 | inactive: -36.6% | –
15 | NC(=O)c1cc(S(=O)(=O)NCc2ccc(Br)cc2)cs1 | inactive: -9.8% | –
16 | CCOC(=O)c1ccc(NC(=O)CCc2c(C)n(CC)c3cc(-c4ccccc4OC)nn3c2=O)cc1 | inactive: -17% | –
17 | CCOC(=O)c1[nH]c(C)c(CCC(=O)NCc2ccc(C)cc2)c1C | inactive: -13.2% | –
18 | CCc1cccc(-n2c(=O)c3cccnc3n2CC(=O)NCc2ccccc2Cl)c1 | inactive: -14.6% | –
19 | Oc1cccc(-c2c3nc(c(-c4cccc(O)c4)c4ccc([nH]4)c(-c4cccc(O)c4)c4nc(c(-c5cccc(O)c5)c5ccc2[nH]5)CC4)C=C3)c1 | inactive: -30.1% | –
20 | COc1ccc(N2CCN(C(=O)c3ccc(NC(=O)c4nsc5ccccc45)cc3)CC2)cc1 | inactive: -12.3% | –
21 | O=C(/C=C\c1ccc2c(c1)OCO2)NC1CC(=O)N(c2ccc(F)cc2)C1 (stereo unspecified) | inactive: -6.17% | –
22 | CCOCCCNC(=O)c1cc2c(=O)n3ccccc3nc2s1 | inactive: -21% | –
23 | CC1CCN(S(=O)(=O)c2cc(C(=O)NCCc3ccccc3)n(C)c2)CC1 | inactive: -26.6% | –
24 | CC(C)(C)c1ccc(C(=O)Nc2cc(-c3ccccc3)nn2-c2ccccc2)cc1 | inactive: 2.18% | –

Row | SMILES | activation | Potency
25 | Cc1ccc(C)c(N2CCN(C(=O)c3cc4cc5ccc(C)cc5nc4s3)CC2)c1 | inactive: -16.1% | –
26 | CC1CCN(C(=O)CSc2nc3c([nH]c4ccccc43)c(=O)n2-c2ccccc2)CC1 | inactive: 4.88% | –
27 | Cc1ccc(CSc2oc(-c3ccco3)nc2S(=O)(=O)c2ccc(Br)cc2)cc1 | inactive: -11.1% | –
28 | O=C(CN1CCN(c2ccc(Cl)cc2)CC1)Nc1ccc(Cl)c(C(F)(F)F)c1 | inactive: -13.9% | –
29 | Cc1ccc(CNC(=O)CCn2ccc3cc(S(=O)(=O)N4CCCC4)ccc32)cc1 | inactive: -19.5% | –
30 | Cc1ccc(CNc2nc3c(S(=O)(=O)c4ccc(C)c(C)c4)nnn3c3ccc(Cl)cc23)cc1 | inactive: -7.28% | –
31 | CCOc1ccc(-n2c(=O)c3c4c(sc3n(Cc3cc(=O)n5cc(Cl)ccc5n3)c2=O)CCC4)cc1 | inactive: -13.3% | –
32 | CCc1ccc(NC(=O)Cn2c(=O)n(Cc3nc(C)no3)c(=O)c3cc4c(cc32)OCO4)cc1 | inactive: -24.4% | –
33 | COc1ccccc1NC(=O)CSc1nnc(-c2nonc2NC(C)=O)n1-c1ccccc1 | inactive: -8.23% | –
34 | Cc1ccc(S(=O)(=O)N(CC(=O)N2CCc3ccccc3C2)c2ccc(C)c(C)c2)cc1 | inactive: -21% | –
35 | Cc1ccc(CNC(=O)Cn2c(=O)n(-c3ccc(C)c(F)c3)c(=O)c3sc4ccccc4c32)cc1 | inactive: 6.68% | –
36 | O=C(Nc1noc2ccccc12)c1c(F)cccc1F | inactive: -15% | –
37 | CCOC(=O)c1c(C)c(-c2ccccc2)n(CC(=O)Nc2cccc(F)c2)c1C | inactive: -10.6% | –
38 | COc1ccc(NC(=O)CSc2nnc3scc(-c4ccc(Cl)cc4)n23)cc1 | inactive: -14.8% | –
39 | Cn1nnnc1SCCNCc1ccc(OCc2ccccc2)cc1 | inactive: -15.4% | –
40 | COC(=O)c1sccc1S(=O)(=O)N(CC(=O)NCc1ccccc1)c1ccc(C)c(C)c1 | inactive: -5.59% | –
41 | CCN(CC)CCCNC(=O)c1nn(-c2ccc(OC)c(Cl)c2)c(=O)c2c1c1ccccc1n2C | inactive: 0.894% | –
42 | Cc1cccc(NC(=O)CN2C(=O)COc3ccc(S(=O)(=O)N4CCC(C)CC4)cc32)c1C | inactive: -6.36% | –
43 | CCOc1ccc(NC(=O)CCS(=O)(=O)c2ccc(Br)s2)cc1 | inactive: -3.83% | –
44 | CCOC(=O)C1CCN(C(=O)C2CCN(c3nnc(C)c4c(C)n(-c5ccccc5)nc34)CC2)CC1 | inactive: 6.74% | –
45 | CC1(C)CO[C@@H](CC(=O)O)CN1 | inactive: -13% | –
46 | Cc1nn(CC(=O)NCc2ccccc2Cl)c(=O)c2cccn12 | inactive: -15.8% | –
47 | CCCC(=O)Nc1cc(C(=O)NCc2ccc(OC)cc2)ccc1S(=O)(=O)c1ccc(Cl)cc1 | inactive: -7.96% | –
48 | Cc1cccc(-c2nc(CCNC(=O)c3ccccc3Br)cs2)c1 | inactive: -12% | –

Row | SMILES | activation | Potency
49 | CCOC(=O)c1ccccc1NC(=O)N1CCCN(S(=O)(=O)c2ccc3c(ccn3CC)c2)CC1 | inactive: 1.94% | –
50 | CCc1ccc(CNC(=O)C2CCCN(c3nn4cc(-c5ccc(F)cc5)nc4s3)C2)cc1 (stereo unspecified) | inactive: -6.21% | –
51 | CCOc1ccc(-c2nc3c(C#N)c[nH]n3c2NC2CCCCC2)cc1 | inactive: -18.9% | –
52 | O=C(Nc1cc(F)ccc1F)c1ccc2c(c1)nnn2C1CCCC1 | inactive: -13.4% | –
53 | COc1ccc(-c2noc(CSc3nnc(-c4ccccc4)n3-c3ccc(F)cc3)n2)c(OC)c1 | inactive: -16.7% | –
54 | Cc1ccc(Cc2c(C)nn(-c3nc(C)c(C(=O)N4CCCCC4C)s3)c2C)cc1 (stereo unspecified) | inactive: -15.8% | –
55 | COc1ccc(NC(=O)C2CCCN(S(=O)(=O)c3c(C)n[nH]c3C)C2)cc1OC (stereo unspecified) | inactive: -24.9% | –
56 | CC(=O)Oc1ccc(C)cc1 | inactive: -20.2% | –
57 | COc1ccc(-c2cc(OC(=O)c3ccc(F)cc3)c3c(C)oc(C)c3c(=O)c2)cc1OC | inactive: -15.1% | –
58 | CCC(=O)N1CCc2cc(S(=O)(=O)NC(C(=O)NCCc3ccc(Cl)cc3)C(C)C)ccc21 (stereo unspecified) | inactive: -14% | –
59 | Cc1cccc(NC(=O)CN2c3ccccc3S(=O)(=O)c3ccccc32)c1C | inactive: -18.9% | –
60 | Cc1ccc(Cl)cc1NC(=O)C(NS(=O)(=O)c1cccc2nsnc12)c1ccccc1 (stereo unspecified) | inactive: -30.1% | –
61 | Cc1ccc(C)c(N2CCN(c3nccn4nc(-c5ccc(Br)cc5)cc34)CC2)c1 | inactive: -1.03% | –
62 | COc1ccc(NC(=O)C2CCCN(S(=O)(=O)c3ccc(Cl)cc3)C2)cc1 (stereo unspecified) | inactive: 1.29% | –
63 | O=C(NCc1ccccc1F)C1CCN(Cc2cc3ccccc3n2Cc2cccc(Cl)c2)CC1 | inactive: -7.14% | –
64 | Cc1c(C(=O)OC2CCCCC2)[nH]c2c1C(=O)CC(c1ccccc1Cl)C2 (stereo unspecified) | inactive: -15.3% | –
65 | Cc1cccn2c(=O)c(/C=C(\C#N)c3nc4ccccc4s3)c(Oc3ccc(Br)cc3)nc12 | inactive: -8.92% | –
66 | Cc1ccccc1NC(=O)Nc1ccc2nc(N3CCN(C)CC3)cc(C)c2c1 | inactive: -8.07% | –
67 | CC(=O)c1cc(-c2ccc(F)cc2)n(CC(=O)NC(C)c2ccccc2)c1C (stereo unspecified) | inactive: -9.64% | –
68 | Cn1c(=O)oc2cc(S(=O)(=O)CCC(=O)NCCc3ccccc3)ccc21 | inactive: -21.1% | –
69 | O=C(COCc1cc(-c2cccs2)on1)NCc1ccccc1Cl | inactive: -44.4% | –
70 | Cc1nc2nc(NC(=O)c3ccc(F)cc3)[nH]n2c(=O)c1Cc1ccccc1 | inactive: -10.8% | –
71 | COc1cc(C2c3c(oc4ccccc4c3=O)C(=O)N2c2nc(C)c(C)s2)ccc1O (stereo unspecified) | inactive: -8.18% | –
72 | COc1cccc(C(=O)NC(=O)Nc2ccc(-n3nc(C(F)(F)F)cc3C(F)(F)F)cc2)c1 | inactive: -0.807% | –

Row | SMILES | activation | Potency
73 | COc1ccc(CNCc2ccc3c(c2)n(C)c(=O)n3C)cc1 | inactive: -17.8% | –
74 | CC(=O)c1ccc(NC(=O)C2=CC(c3cccs3)=NS(=O)(=O)N2C)cc1 | inactive: -12.3% | –
75 | Cc1cc(C)n(-c2nnc(Nc3ccc(C(C)C)cc3)c3ccccc23)n1 | inactive: 1.66% | –
76 | NCCNC(=O)c1ccc(Cl)cn1 | inactive: -11.1% | –
77 | Fc1ccc(Nc2c3c(nc4nncn24)CCC3)cc1 | inactive: -8.45% | –
78 | COc1cc(Nc2nc(SCc3cccc(Cl)c3)nc3ccccc23)cc(OC)c1 | inactive: 0.252% | –
79 | Cc1nc2c(c(C)nn2-c2ccccc2)c(C)c1CCC(=O)Nc1ccc(F)cc1 | inactive: -7.32% | –
80 | Cc1ccc2nc(-c3ccc(NC(=O)C(F)(F)F)cc3)sc2c1 | – | active: 14.1 µM
81 | Cc1ccc(NC(=O)Cn2cc(S(=O)(=O)Cc3ccc(F)cc3)c3ccccc32)cc1Cl | inactive: -8.36% | –
82 | COc1ccc(-c2cc(C(F)(F)F)nc(SCC(=O)NCCc3ccccc3)n2)cc1 | inactive: 20.6% | –
83 | CCOc1ccccc1C(=O)N(Cc1sccc1C)C1CCS(=O)(=O)C1 (stereo unspecified) | inactive: -7.95% | –
84 | O=C(Nc1ccccc1)c1nc[nH]c1C(=O)O | inactive: -23.5% | –
85 | Cc1cc(C)c2c(CC(=O)N(Cc3ccc(Cl)cc3)Cc3ccco3)coc2c1 | inactive: -8.2% | –
86 | CCOC(=O)CSc1nc2cc3c(cc2c(=O)n1Cc1ccc(C(=O)NCCc2ccc(OC)c(OC)c2)cc1)OCO3 | inactive: -5.92% | –
87 | Cc1c(-c2ccccc2)nc2c(Cl)cccc2c1C(=O)OCC(=O)c1ccc(F)cc1 | inactive: -12.6% | –
88 | COc1cc(OC)c(N(C)C(=O)c2c(C)oc3ncn(CC(C)C)c(=O)c23)cc1Cl | inactive: -12.5% | –
89 | CCCSc1ncc(Cl)c(C(=O)Nc2sc3c(c2C(=O)OC)CCCC3)n1 | inactive: -2.57% | –
90 | O=C(CSCc1cnn(-c2ccccc2)c1-n1cccc1)NCc1cccc(Cl)c1 | inactive: -14.1% | –
91 | N#Cc1c(-n2ncnc2-c2ccc(F)cc2)sc2c1CCCCC2 | inactive: -4.38% | –
92 | Cc1ccc(-n2nc(C)c(C(=O)O)c2-n2cccc2)cc1 | inactive: -18.1% | –
93 | Cc1ccc(CNC(=O)c2c(C)oc3ncnc(N4CCOCC4)c23)cc1 | inactive: -39.2% | –
94 | CCOC(=O)c1c(C)[nH]c(C)c1S(=O)(=O)N(C)CC(=O)Nc1ccc(CC)cc1 | inactive: -17.7% | –
95 | COc1ccc(/C=C\c2onc(C)c2S(=O)(=O)N2CCC(C(=O)Nc3cccc(OC)c3)CC2)cc1 | inactive: 3.57% | –
96 | Cc1ccc(S(=O)(=O)Nc2ccc3nc(-c4ccc(F)cc4)oc3c2)cc1 | inactive: -16.8% | –
